The campaign covered roughly 44,000 compounds. About 340 (0.77%) were called active. Inconclusive results (about 5%) are left out. The call rests on the fitted dose curve; in most records, active means well fitted inhibition curve with a large enough effect; inconclusive means small, poorly fitted or top-dose-only effect; inactive means flat fitted curve, though single readings scatter. The list shows a part of the results.
experiment: Acumen qHTS Assay for Inhibitors of the mTORC1 Signaling Pathway in MEF (Tsc2-/-, p53-/-) Cells: Sytravon; details: phospho-rpS6 immunofluorescence/PI, 24 h; series mostly up to 38.3 µM; activity change, negative = inhibition: at the top concentration;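 further: plate controls were DMSO for no effect and rapamycin for full effect; nearly all actives have a fitted effect of over 50% in size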
Outline: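 Immunofluorescence of rpS6 phosphorylation in Tsc2-/-, p53-/- MEFs after 24 h compound exposure, normalized to propidium iodide signal. Activity is expressed as % positive cells, thresholded with 7.5 nM rapamycin.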

Activity change, negative = inhibition, inactive:
COc1cccc(NC(=O)C2CCCN(S(=O)(=O)c3cn(C(C)C)cn3)C2)c1 (stereo not given) -7.07%
CCOc1ccc(CCNC(=O)c2cc3cccc4c3n2CCS4)cc1 -8.12%
CCCC(=O)N(c1ccc2oc(C)c(C(C)=O)c2c1)S(=O)(=O)c1ccc(CC)cc1 -13.1%
COc1ccc(N2CCN(c3ncnc4c3cnn4C)CC2)cc1 7.84%
Cc1cccc(C(=O)Nc2ccc(S(=O)(=O)N3CCC(c4nc5ccccc5s4)CC3)cc2)c1 1.08%
COCCCNC(=O)c1cc2cc(S(=O)(=O)N3CCCCC3)ccc2n1C -1.21%
CCC(C)(C)NC(=O)C1CCN(S(=O)(=O)c2ccc3c(c2)CCCN3C(C)=O)CC1 -11.4%
Cc1cc(C)c(NC(=O)CSc2ncc3c(n2)-c2cc(Cl)ccc2N(C)S3(=O)=O)c(C)c1 -24.4%
COc1cc(CN2CCc3nc(N4CCN(c5ccccn5)CC4)ncc3C2)cc(OC)c1OC 0%
O=C(Nc1ccc(Cl)cc1C(F)(F)F)c1cc(S(=O)(=O)N2CCOCC2)ccc1F 2.93%
CCOc1ccc(S(=O)(=O)n2nc(C)c(S(=O)(=O)N3CCCCC3)c2C)cc1 -11.5%
CC(C)(C)OC(=O)N1CCC(c2c(C(=O)NCc3ccco3)cnn2-c2ccccc2Cl)CC1 0.198%
Cc1nn(CCCC(=O)NCc2ccccc2)c(=O)c2cc3sccc3n12 -2.51%
CC(=O)c1cc(-c2ccccc2)n(CCC(=O)NC(C)c2ccccc2)c1C (stereo not given) -0.634%
COC(=O)c1ccccc1NS(=O)(=O)c1ccc2c(c1)CCCN2C(C)=O 4.69%
CCCC(=O)n1nc(-c2cccnc2)nc1NCc1ccc(OC)cc1 7.24%
COc1ccc(C(=O)Nc2cc3c(cc2N2CCCC2)n(C)c(=O)c(=O)n3C)cc1OC -1.42%
CCOc1cc(C(=O)Nc2ccc(-c3nc4ccccc4s3)cc2Cl)cc(OCC)c1OCC -8.71%
Cc1cccc(C)c1NC(=O)Cn1c(=O)n(Cc2ccc3c(c2)OCO3)c(=O)c2oc3ccccc3c21 0.547%
Fc1ccc(-n2ncc3c(NCCC4=CCCCC4)ncnc32)cc1 8.93%
COc1ccc(C(=O)Nc2cc(S(=O)(=O)c3ccc(Cl)cc3)c(O)c(C)c2C)cc1 -3.66%
O=C(Nc1ccc(Br)cc1)C(Cc1ccccc1)NS(=O)(=O)c1cccc2nsnc12 (stereo not given) -0.0459%
COc1ccccc1NC(=O)Cn1nc(-c2ccc(C)cc2)c2c(c1=O)CCCC2 -4.8%
Cc1ccc(CNC(=O)c2c(C)oc3nc(C)nc(N4CCOCC4)c23)cc1 3.18%
CCc1ccc(-n2nc3cc(C)c(NC(=O)c4cc(OC)cc(OC)c4)cc3n2)cc1 -3.9%
CC(C)(C)c1ccc(C(=O)NCC(c2cccs2)S(=O)(=O)c2cccs2)cc1 (stereo not given) 1.28%
Cc1cccc(CSCc2ccc(C(=O)NCCc3ccccc3)o2)c1 2.56%
COc1ccccc1CCNC(=O)Cc1c(C)c2cc3c(C)coc3cc2oc1=O 4.79%
O=C(c1cc2ccccc2oc1=O)N1CCN(c2ccc(F)cc2)CC1 3.45%
Cc1cc(C)c2c(CC(=O)Nc3ccc(S(=O)(=O)N4CCCCC4)cc3)coc2c1 -4.02%
CCOc1cc(-c2ccc(OC(=O)c3ccc(C)cc3)c(OC)c2)cc(=O)c2c(C)oc(C)c12 -1.65%
Nc1c(-c2nc(-c3ccccc3)no2)nnn1CC(=O)Nc1cccc(F)c1 -10.3%
CCN(CC)CCN(C(=O)c1ccco1)c1nc2cc(C)cc(C)c2s1 -0.665%
CC(=O)c1ccc(NC(=O)CN(C)S(=O)(=O)c2cc3c(cc2Cl)NC(=O)CO3)cc1 -1.21%
N#Cc1c(-n2ncnc2-c2ccccc2C(F)(F)F)sc2c1CCCCC2 1.87%
Cc1ccc(NCc2cccn2-c2nnc(N3CCC(C(=O)NCCC(C)C)CC3)s2)cc1 -7.47%
CCOC(=O)c1ccc(Nc2c(-c3cccc(O)c3)nc3nc[nH]n23)cc1 -2.49%
COc1cc(NC(=O)CNS(=O)(=O)c2cccs2)cc(OC)c1OC 3.95%
CC1CCC(NC(=O)c2ccc(CS(=O)(=O)c3cccc(C(F)(F)F)c3)o2)CC1 (stereo not given) -6.37%
O=C(NCc1cccs1)c1ccc(CSc2nc3ccncc3n2Cc2ccccc2)cc1 -7.19%
CCOc1ccc(S(=O)(=O)NCCc2csc3nc(-c4ccc(F)cc4)nn23)cc1 -18.7%
COc1cccc(C2=NS(=O)(=O)N(C)C(C(=O)Nc3ccccc3SC)=C2)c1 -0.603%
Cc1ccc(C)c(Cn2c(=O)n(Cc3ccccc3)c(=O)c3c2c2cc(C)ccc2n3C)c1 -0.74%
CCOC(=O)c1ccc(NC(=O)Cn2c(=O)cc(C(F)(F)F)c3c(C)nn(C)c32)cc1 5.77%
Cc1ccc(C(=O)Nc2ccc(S(=O)(=O)Nc3onc(C)c3C)cc2)cc1 -2.29%
Cc1ccc(Cl)cc1N1CCN(CCCNC(=O)C2COc3ccccc3C2)CC1 (stereo not given) -7.06%
Fc1ccc(CSc2nc(NCc3ccccc3)c3ccccc3n2)cc1 -18.5%
COc1ccc(CNC(=O)Cn2c(=O)cc(C)c3c(C)nn(-c4cccc(Cl)c4C)c32)cc1 2.64%
COc1ccc(C(=O)NCCn2cc(SC(C)c3ccccc3)c3ccccc32)cc1OC (stereo not given) -0.161%
Cc1ccc(N(C)C(=O)CCS(=O)(=O)c2cc3c(cc2Cl)NC(=O)CO3)cc1 4.39%
COc1cc(NC(=O)NCCN2CCN(c3ccccc3)CC2)cc(OC)c1OC -0.412%
Cc1cc(C)c(S(=O)(=O)Nc2ccc(-c3ccc(N4CCCCCC4)nn3)cc2)cc1C -0.126%
CCN(CC)c1ccc2cc(-c3nc(-c4ccccc4F)no3)c(=O)oc2c1 -7.99%
Cc1cccc(NC(=O)CSc2nc3c(sc4ccccc43)c(=O)n2CCCC(=O)NC2CCCC2)c1 -11.4%
Cc1cccc(C(=O)Nc2ccc(S(=O)(=O)N(Cc3ccccc3)c3ccccc3)cc2)c1 -5.63%
CCc1ccc(NC(=O)Nc2nnc(N(C)C3CCCCC3)s2)cc1 2.22%
O=C(Nc1cccc(C(F)(F)F)c1)c1ccc2snnc2c1 0.0529%
CC(=O)c1ccc(NC(=O)Cn2c(=O)nc(-c3ccccc3)c3cc(Cl)ccc32)cc1 0%
CCC(C)NC(=O)CSc1nc2cc3c(cc2c(=O)n1Cc1ccc(C(=O)NCCc2ccc(OC)c(OC)c2)cc1)OCO3 (stereo not given) -1.38%
Cc1cccc(N2CCN(C(=O)C3CCN(c4ncnc5c4nc4n5CCCCC4)CC3)CC2)c1C -6.16%

Source: PubChem BioAssay AID493208 (National Center for Advancing Translational Sciences (NCATS), 2011)
